In publication PMC7287031:

Substrate: CN(C)C(=O)c1cc2cnc(Nc3ccc(N4CCNCC4)cn3)nc2n1C1CCCC1
Assay: Enzyme kinetics with recombinant CYP3A4 and scaling to HLM
Assay type: in vitro ADME, human
Conditions: other: recombinant CYP3A4, substrate inhibition model; 37.0 °C

B1: CYP3A4 (Homo sapiens) (protein)
chain: MALIPDLAMETWLLLAVSLVLLYLYGTHSHGLFKKLGIPGPTPLPFLGNILSYHKGFCMFDMECHKKYGKVWGFYDGQQPVLAITDPDMIKTVLVKECYSVFTNRRPFGPVGFMKSAISIAEDEEWKRLRSLLSPTFTSGKLKEMVPIIAQYGDVLVRNLRREAETGKPVTLKDVFGAYSMDVITSTSFGVNIDSLNNPQDPFVENTKKLLRFDFLDPFFLSITVFPFLIPILEVLNICVFPREVTNFLRKSVKRMKESRLEDTQKHRVDFLQLMIDSQNSKETESHKALSDLELVAQSIIFIFAGYETTSSVLSFIMYELATHPDVQQKLQEEIDAVLPNKAPPTYDTVLQMEYLDMVVNETLRLFPIAMRLERVCKKDVEINGMFIPKGVVVMIPSYALHRDPKYWTEPEKFLPERFSKKNKDNIDPYIYTPFGSGPRNCIGMRFALMNMKLALIRVLQNFSFKPCKETQIPLKLSLGGLLQPEKPVVLKVESRDGTVSGA
notes: purchased BD Biosciences
- Km: 6.68 µM
- kcat: 0.205 s⁻¹
- kcat/Km: 30680 M⁻¹ s⁻¹
